Sequences and labels used below:
B1: H_aBCMA-1-E6_15 aa_aCD16-A10(34a-D10)_His6c_OH (designed binder)
chain: VDNKFNKENQFADEEIAALPNLNFYQKWAFIRKLMDDPSQSANLLAEAKKLNDAQAPKGGGSGGGGSGGGGSGVDNKFNKEQQEAQLEIRRLPNLNHHQVFAFIKSLLDDPSQSANLLAEAKKLNDAQAPK
B2: H_aBCMA-1-E6_15 aa_aCD16-A10(34a-A11)_His6c_OH (designed binder)
chain: B1 chain with E84I, L87Y, R91K, V100T
B3: 1-E6-(GGGSG)3-A10*-YY-His6 with A10* = SEQ ID 53 (designed binder)
chain: VDNKFNKENQFADEEIAALPNLNFYQKWAFIRKLMDDPSQSANLLAEAKKLNDAQAPKGGGSGGGGSGGGGSGVDNKFNKELQYAQVEIRKLPNLNHHQRFAFIKSLLDDPSQSANLLAEAKKLNDAQAPKYYHHHHHH
B4: 1-E6-(GGGSG)3-A10*-YY-His6 with A10* = SEQ ID 59 (designed binder)
chain: B3 chain with Y84F, V87R, K91A, R100I, K105R
B5: 1-E6-(GGGSG)3-A10*-YY-His6 with A10* = SEQ ID 63 (designed binder)
chain: B3 chain with L82F, Y84A, V87Q, K91R, R100A, K105R
B6: 1-E6-(GGGSG)3-A10*-YY-His6 with A10* = SEQ ID 62 (designed binder)
chain: B3 chain with L82V, Y84I, V87L, K91A, R100I, S106K, L108H
B7: 1-E6-(GGGSG)3-A10*-YY-His6 with A10* = SEQ ID 58 (designed binder)
chain: B3 chain with Y84A, K91T, R100V, K105Q, S106K, L108I
B8: 1-E6-(GGGSG)3-A10*-YY-His6 with A10* = SEQ ID 61 (designed binder)
chain: B3 chain with Y84V, V87H, K91F, R100K, K105N, S106K, L108I
B9: H_aBCMA-1-E6_15 aa_aCD16-A10(2b-G11)_His6c_OH (designed binder)
chain: B3 chain with L82V, Y84I, V87T, K91S, R100V, K105Q, L108I
B10: A10-YY-His6 (wild-type A10 with C-terminal His6 tag) (designed binder)
chain: VDNKFNKEVQMAQFEIRKLPNLNHHQSFAFIKSLMDDPSQSANLLAEAKKLNDAQAPKYYHHHHHH
notes: also called A10-His6; original A10 polypeptide
B11: A10 alanine variant at position 10 (Q10A), polypeptide-YY-His6 (designed binder)
chain: B10 chain with Q10A
B12: A10 M35A, polypeptide-YY-His6 (designed binder)
chain: B10 chain with M35A
B13: A10 alanine variant at position 11 (M11A), polypeptide-YY-His6 (designed binder)
chain: B10 chain with M11A
B14: A10 alanine variant at position 14 (F14A), polypeptide-YY-His6 (designed binder)
chain: B10 chain with F14A
B15: A10 alanine variant at position 28 (F28A), polypeptide-YY-His6 (designed binder)
chain: B10 chain with F28A
B16: A10 H25A, polypeptide-YY-His6 (designed binder)
chain: B10 chain with H25A
B17: A10 alanine variant at position 9 (V9A), polypeptide-YY-His6 (designed binder)
chain: B10 chain with V9A
B18: A10 alanine variant at position 17 (R17A), polypeptide-YY-His6 (designed binder)
chain: B10 chain with R17A
B19: A10 alanine variant at position 13 (Q13A), polypeptide-YY-His6 (designed binder)
chain: B10 chain with Q13A
B20: A10 alanine variant at position 31 (I31A), polypeptide-YY-His6 (designed binder)
chain: B10 chain with I31A
notes: also called 131A (so in the source)
B21: A10 alanine variant at position 18 (K18A), polypeptide-YY-His6 (designed binder)
chain: B10 chain with K18A
B22: A10 alanine variant at position 32 (K32A), polypeptide-YY-His6 (designed binder)
chain: B10 chain with K32A
B23: A10 alanine variant at position 24 (H24A), polypeptide-YY-His6 (designed binder)
chain: B10 chain with H24A
B24: A10 alanine variant at position 27 (S27A), polypeptide-YY-His6 (designed binder)
chain: B10 chain with S27A

Changes are numbered by the printed parent chain. Numbers in names are those of the source.

The first assay has as its target T1, hCD16a F158 (Cat. no. CDA-H5220, Acro Biosystems) (human, UniProt P08637 17-208).
T1 construct: also called human CD16a F158; hCD16a F158 allotype
Nature of the assay: SPR, 1-E6-(GGGSG)3-A10*-YY-His6 fusion over immobilised receptor [f]. In general terms: SPR reads the build-up and loss of mass on a sensor chip optically.
In turn, B1 had an equilibrium dissociation constant (Kd) of 87 nM, a koff of 0.005 s⁻¹ and an on-rate (kon) of 58000 M⁻¹ s⁻¹.
For B2, in that order: 5 nM, 0.00026 s⁻¹ and 58000 M⁻¹ s⁻¹.
On the same counts, the results for B3 are 39 nM, 0.0049 s⁻¹ and 130000 M⁻¹ s⁻¹.
On the same counts, the results for B4 are 192 nM, 0.0057 s⁻¹ and 29000 M⁻¹ s⁻¹.
In turn, B5 displayed an equilibrium dissociation constant (Kd) of 248 nM, a koff of 7.5 s⁻¹ and a kon of 3e+07 M⁻¹ s⁻¹.
On the same counts, the results for B6 are 234 nM, 0.6 s⁻¹ and 2.6e+06 M⁻¹ s⁻¹.
On the same counts, the results for B7 are 266 nM, 0.03 s⁻¹ and 110000 M⁻¹ s⁻¹.
For B8, in that order: 213 nM, 0.068 s⁻¹ and 320000 M⁻¹ s⁻¹.
The molecule B9 showed an equilibrium dissociation constant (Kd) of 293 nM, a koff of 0.014 s⁻¹ and a kon of 48000 M⁻¹ s⁻¹.

In another assay the target is T2, hCD16a V158 (Cat. no. CD8-H52H4, Acro Biosystems) (human, UniProt P08637 17-208).
T2 construct: also called human CD16a V158; hCD16a V158 allotype
The assay is described as above.
Take B1: the Kd amounted to 87 nM.
Same read-out and setting: with B2 the figure was 4 nM; with B3, 41 nM; with B4, 181 nM.
Same read-out and setting: with B5 the figure was 219 nM.
On the same count and under the same terms, with B6 the figure was 204 nM; with B7, 241 nM.
B8 yielded a Kd of 187 nM.
Still for that read-out and setting: with B9 the figure was 273 nM.

The next assay has as its target T1, hCD16a F158 (Cat. no. CDA-H5220, Acro …). Nature of the assay: SPR (Biacore 8K), serial dilutions over immobilised hCD16a F158, 1:1 Langmuir model.
For B1, the Kd was found to be 87 nM, the koff came out at 0.005 s⁻¹ and the kon is 58000 M⁻¹ s⁻¹.
On the same counts, the results for B2 are 5.2 nM, 0.00035 s⁻¹ and 66000 M⁻¹ s⁻¹.
The molecule B3 displayed an equilibrium dissociation constant (Kd) of 39 nM, a koff of 0.0049 s⁻¹ and an association rate constant (kon) of 130000 M⁻¹ s⁻¹.

The target is the same in a further assay. As to the kind of experiment: SPR (Biacore T200), 200 nM analyte over immobilised hCD16a F158.
B10: the binding result was “binds”.
Still for that read-out and setting: the value for B11 was “binds”; that for B12 was “binds”; that for B13 was “binds”.
For the molecule B14, the binding result is given as “binds”.
Still for that read-out and setting: with B15 the entry was “binds”; with B16, “binds”; with B17, “binds”.
Same read-out and setting: the value for B18 was “binds”.
On the same count and under the same terms, the value for B19 was “binds”.
On to B20, for which the binding result is “binds”.
Still for that read-out and setting: the value for B21 was “binds”; that for B22 was “binds”; that for B23 was “binds”.
Same read-out and setting: with B24 the entry was “binds”.

For the next assay, the target named is T3, CD16b NA2 (human, UniProt O75015).
T3 construct: also called CD16b (NA2 form)
Nature of the assay: SPR, 1-E6-(GGGSG)3-A10*-YY-His6 fusion; CD16b set-up not described [f].
Turning to B1, the Kd was 151 nM.
On the same count and under the same terms, with B2 the figure was 16 nM.
Same read-out and setting: the value for B3 was 77 nM; that for B4 was 257 nM.
For B5, the Kd is 289 nM.
In turn, B6 displayed a dissociation constant Kd of 304 nM. This Kd and that of the molecule before are within 1.5-fold of each other.
The same measure, in the same setting: with B7 the figure was 373 nM; with B8, 328 nM; with B9, 450 nM.

The target in a further assay is T4, CD16b NA1 (human, UniProt O75015).
T4 construct: also called CD16b (NA1 form)
Described as above.
The molecule B1 came in with a Kd of 38 nM.
The same measure, in the same setting: with B2 the figure was 27 nM; with B3, 21 nM; with B4, 52 nM.
Still for that read-out and setting: the value for B5 was 85 nM.
The molecule B6 registered a Kd of 126 nM.
B7 yielded a Kd of 133 nM.
The same measure, in the same setting: the value for B8 was 133 nM.
The same measure, in the same setting: with B9 the figure was 138 nM.

By Kd is commonly meant the constant that tells how readily two partners part at equilibrium. A low value points to a tighter complex. As usually defined, the koff is the first-order rate constant of dissociation. A low value points to slow dissociation. For orientation: kon means a measure of how fast the partners come together. Lower therefore signals slower complex formation.

For the origin of these results see US20250333445A1 (ONCOPEPTIDES INNOVATION 1, published 2025).
